The structures appear in SMILES notation. This is one part of the list.

The values that follow come from the antibiotic and cytotoxicity screens of Wong et al. (2023).

In one experiment the test system is HSkMC. Description: cytotoxicity call (relative viability < 0.9). The note with it: 10 µM.
A further experiment has as its system HepG2. The experiment in a line: cytotoxicity call (relative viability < 0.9). The note with it: 10 µM.
For the next experiment, the system named is S. aureus RN4220. Description: growth inhibition call (relative growth <= 0.2). The following applies: 50 µM.

With `C[C@H]1CN([C@@H](C)CO)C(=O)Cc2cc(NS(=O)(=O)c3ccccc3)ccc2O[C@@H]1CN(C)Cc1ccc(Oc2ccccc2)cc1`, in the experiment on HSkMC, the cytotoxicity call was “active”. The cytotoxicity call with HepG2 is “inactive”. Moreover, the growth inhibition call in the experiment with S. aureus RN4220 was “inactive”.
On to `C[C@@H]1CN([C@@H](C)CO)C(=O)Cc2cc(NC(=O)Cn3cnnn3)ccc2O[C@H]1CN(C)S(=O)(=O)c1cn(C)cn1`, for which the cytotoxicity call with HSkMC and with HepG2 was “inactive” in each case. Besides, in the experiment on S. aureus RN4220, the growth inhibition call is “inactive”.
As to `COc1ccc(S(=O)(=O)Nc2ccc3c(c2)C(=O)N([C@@H](C)CO)C[C@H](C)[C@@H](CN(C)S(=O)(=O)c2ccc(OC)cc2)O3)cc1`, the cytotoxicity call in the experiment on HSkMC and in the experiment on HepG2 was “inactive” throughout. Besides, the growth inhibition call in the experiment on S. aureus RN4220 was “inactive”.
Turning to `C[C@H]1CN([C@@H](C)CO)C(=O)c2cccc(NS(=O)(=O)c3ccccc3)c2O[C@@H]1CN(C)Cc1ccncc1`, the cytotoxicity call with HSkMC and in the experiment with HepG2 was “inactive” throughout. In the experiment on S. aureus RN4220, the growth inhibition call is “inactive”.
Take `Cn1cnc(S(=O)(=O)N2C[C@H](O)COC[C@H]3O[C@H](CC(=O)NCc4ccc(F)cc4)CC[C@@H]32)c1`: the cytotoxicity call in the experiment on HSkMC (human skeletal muscle cells) and in the experiment on HepG2 was “inactive” in each case. Besides, the growth inhibition call in the experiment on S. aureus RN4220 was “inactive”.
For `COc1ccc(S(=O)(=O)N(C)C[C@@H]2Oc3ccc(NS(C)(=O)=O)cc3CC(=O)N([C@H](C)CO)C[C@@H]2C)cc1`, the cytotoxicity call in the experiment with HSkMC and in the experiment with HepG2 was “inactive” in each case. Also, the growth inhibition call with S. aureus RN4220 is “inactive”.
Turning to `C[C@@H]1CN([C@@H](C)CO)C(=O)c2cc(NS(C)(=O)=O)ccc2O[C@@H]1CN(C)C(=O)Nc1ccccc1`, the cytotoxicity call with HSkMC and in the experiment with HepG2 was “inactive” in each case. Moreover, the growth inhibition call in the experiment on S. aureus RN4220 is “inactive”.
As to `C[C@@H]1CN([C@@H](C)CO)C(=O)c2cccc(NS(C)(=O)=O)c2O[C@@H]1CN(C)S(C)(=O)=O`, the cytotoxicity call with HSkMC and in the experiment on HepG2 was “inactive” each time. Besides, the growth inhibition call in the experiment with S. aureus RN4220 is “inactive”.
Consider `CCc1nc2ccc(C(=O)Nc3cccc(OCC(=O)N(C)C)c3)cn2c1N(C)Cc1cc2ccccc2s1`, for which the cytotoxicity call with HSkMC and in the experiment with HepG2 was “inactive” throughout. Also, the growth inhibition call in the experiment with S. aureus RN4220 is “inactive”.
